The other results are listed elsewhere or left out.

This passage reports cytotoxicity call and growth inhibition call results from the antibiotic and cytotoxicity screens of Wong et al. (2023).

The test system of experiment [1] is HSkMC (human skeletal muscle cells). In words: cytotoxicity call (relative viability < 0.9). As to conditions: 10 µM.
Experiment [2] concerns HepG2. In words: cytotoxicity call (relative viability < 0.9). As to conditions: 10 µM.
Experiment [3] has as its system S. aureus RN4220. In words: growth inhibition call (relative growth <= 0.2). The following applies: 50 µM.

For `COc1ccc(S(=O)(=O)Nc2ccc3c(c2)C(=O)N([C@@H](C)CO)C[C@@H](C)[C@@H](CN(C)CC2CC2)O3)cc1`, the cytotoxicity call in experiment [1] and in experiment [2] was “inactive” each time. The growth inhibition call in experiment [3] was “inactive”.
As to `Cc1ccc(C(C)C)cc1O`, the cytotoxicity call in experiment [1] and in experiment [2] was “inactive” in each case. For the same compound, in experiment [3], the growth inhibition call is “inactive”.
With `Cc1noc(C)c1NC(=O)Nc1ccc2c(c1)CC(=O)N([C@@H](C)CO)C[C@H](C)[C@@H](CN(C)Cc1ccc(Oc3ccccc3)cc1)O2`, the cytotoxicity call in experiment [1] and in experiment [2] was “inactive” throughout. Moreover, the growth inhibition call in experiment [3] is “inactive”.
With `O=C(O)[C@H]1C[C@H]2C(=O)NCC(=O)N2[C@H]1c1ccc(O)cc1`, the cytotoxicity call in experiment [1] and in experiment [2] was “inactive” in each case. Further, the growth inhibition call in experiment [3] is “inactive”.
Turning to `O=S(=O)(NCC[C@H]1CC[C@H](NS(=O)(=O)c2cccc(Cl)c2)[C@@H](CO)O1)c1cccc(F)c1`, the cytotoxicity call in experiment [1] and in experiment [2] was “inactive” in each case. The growth inhibition call in experiment [3] was “inactive”.
In the case of `COc1ccc(S(=O)(=O)Nc2cccc3c2O[C@H](CN(C)S(C)(=O)=O)[C@H](C)CN([C@H](C)CO)C3=O)cc1`, the cytotoxicity call in experiment [1] and in experiment [2] was “inactive” throughout. Moreover, the growth inhibition call in experiment [3] is “inactive”.
In the case of `Cc1noc(C)c1S(=O)(=O)N(C)C[C@@H]1Oc2c(NS(=O)(=O)c3cn(C)cn3)cccc2C(=O)N([C@H](C)CO)C[C@H]1C`, the cytotoxicity call in experiment [1] and in experiment [2] was “inactive” throughout. Besides, the growth inhibition call in experiment [3] is “inactive”.
Consider `Cc1ccc(S(=O)(=O)Nc2ccc3c(c2)CC(=O)N([C@@H](C)CO)C[C@H](C)[C@@H](CN(C)S(=O)(=O)c2c(C)noc2C)O3)cc1`, for which the cytotoxicity call in experiment [1] and in experiment [2] was “inactive” throughout. In addition, in experiment [3], the growth inhibition call is “inactive”.
As for `CCOC(=O)Cc1c(C)[nH]c(SC)nc1=O`, the cytotoxicity call in experiment [1] and in experiment [2] was “inactive” each time. For the same compound, the growth inhibition call in experiment [3] is “inactive”.
`COc1ccccc1C#Cc1cnc2c(c1)C(=O)N([C@@H](C)CO)C[C@@H](C)[C@H](CN(C)C(=O)CC1CC1)O2`: the cytotoxicity call in experiment [1] and in experiment [2] was “inactive” throughout. In addition, in experiment [3], the growth inhibition call was “inactive”.
Turning to `C[C@@H]1CN([C@H](C)CO)S(=O)(=O)c2ccc(C#Cc3ccc(F)cc3)cc2O[C@@H]1CN(C)S(=O)(=O)c1cn(C)cn1`, the cytotoxicity call in experiment [1] and in experiment [2] was “inactive” throughout. Also, the growth inhibition call in experiment [3] is “inactive”.
For the compound `C[C@H](CO)N1C[C@H](C)[C@@H](CN(C)Cc2ccc(C(=O)O)cc2)Oc2ccc(NC(=O)c3ccncc3)cc2C1=O`, the cytotoxicity call in experiment [1] and in experiment [2] was “inactive” in each case. Also, in experiment [3], the growth inhibition call is “inactive”.
With `C[C@H](CO)N1C[C@H](C)[C@H](CN(C)S(=O)(=O)c2ccc(F)cc2)OCCCC[C@H](C)Oc2ccc(NC(=O)CCC(F)(F)F)cc2C1=O`, the cytotoxicity call in experiment [1] and in experiment [2] was “inactive” each time. The growth inhibition call in experiment [3] was “inactive”.
Regarding `C=CCC[C@H](Cc1ccc(F)cc1)C(=O)OC[C@@H]1CCCN1C(=O)[C@@H](CC=C)CC(=O)N(CCO)Cc1ccccc1`, the cytotoxicity call in experiment [1] is “active”. The cytotoxicity call in experiment [2] is “inactive”. The growth inhibition call in experiment [3] is “inactive”.
Take `CC(C)NC(=O)N(C)C[C@H]1Oc2ccc(NC(=O)C3CCCCC3)cc2C(=O)N([C@H](C)CO)C[C@@H]1C`: the cytotoxicity call in experiment [1] and in experiment [2] was “inactive” each time. Besides, in experiment [3], the growth inhibition call was “inactive”.
With `COCCOC(=O)N1C(=O)[C@@]2(c3cc(C#CCNC(N)=O)ccc31)[C@H](c1ccccc1OCCO)N1[C@H](c3ccccc3)[C@H](c3ccccc3)OC(=O)[C@H]1[C@@H]2C(=O)N1CCCCCCC1`, the cytotoxicity call in experiment [1] and in experiment [2] was “inactive” each time. Further, in experiment [3], the growth inhibition call is “inactive”.
In the case of `C[C@H]1CN([C@@H](C)CO)C(=O)c2c(c3ccccc3n2C)-c2ccccc2CO[C@@H]1CN(C)C(=O)CCC(F)(F)F`, the cytotoxicity call in experiment [1] and in experiment [2] was “inactive” in each case. Also, in experiment [3], the growth inhibition call is “inactive”.
On to `CC(=O)N[C@H](CCCNC(=N)N)C(=O)N[C@H](CCCNC(=N)N)C(=O)N[C@H](CCCNC(=N)N)C(=O)N[C@H](CCCNC(=N)N)C(=O)N[C@H](CCCNC(=N)N)C(=O)N[C@H](CCCNC(=N)N)C(=O)N[C@H](CCCNC(=N)N)C(=O)N[C@H](CCCNC(=N)N)C(=O)N[C@H](CCCNC(=N)N)C(N)=O`, for which the cytotoxicity call in experiment [2] was “inactive”. Moreover, the growth inhibition call in experiment [3] is “inactive”.
Consider `COc1ccc(NC(=O)Nc2ccc3c(c2)C(=O)N([C@H](C)CO)C[C@@H](C)[C@@H](CN(C)S(=O)(=O)c2ccc(C)cc2)OCCCC[C@H](C)O3)cc1`, for which the cytotoxicity call in experiment [1] and in experiment [2] was “inactive” each time. For the same compound, the growth inhibition call in experiment [3] was “inactive”.
On to `O=C(O)C1=CC(O)C(O)C(O)C1` (centres undefined), for which the growth inhibition call in experiment [3] is “inactive”.
Take `CC(C)(C)CC(C)(C)c1ccc(OCCOCC[N+](C)(C)Cc2ccccc2)cc1.[Cl-]`: in experiment [3], the growth inhibition call was “active”.
Still for that read-out and setting: next, `CC1(C)CCC2=C(O1)c1ccccc1C(=O)C2=O` [beta-LAPACHONE]: “inactive”; `CCC(C)(C)C(=O)OC1CC(C)C=C2C=CC(C)C(CCC3CC(O)CC(=O)O3)C21` (centres undefined): “inactive”.
Regarding `NS(=O)(=O)c1ccc(Cl)c2nonc12`, the cytotoxicity call in experiment [1] and in experiment [2] was “inactive” throughout. In addition, in experiment [3], the growth inhibition call is “inactive”.
`CC(C)=CCCC(C)=CCCC(C)=CCO` [trans,trans-FARNESOL]: the growth inhibition call in experiment [3] was “inactive”.
For the compound `Nc1c2ccccc2nc2ccccc12`, the cytotoxicity call in experiment [2] is “active”. Further, the growth inhibition call in experiment [3] was “inactive”.
As to `Cc1ccc(S(=O)(=O)N(C)C[C@@H]2OCCCC[C@H](C)Oc3ccc(NC(=O)NC4CCCCC4)cc3C(=O)N([C@H](C)CO)C[C@H]2C)cc1`, the cytotoxicity call in experiment [1] was “inactive”. Besides, the cytotoxicity call in experiment [2] was “active”. The growth inhibition call in experiment [3] is “inactive”.
Regarding `O=C(c1ccccc1)c1ccccc1`, the growth inhibition call in experiment [3] was “inactive”.
With `Cc1c(C(=O)NN2CCCCC2)nn(-c2ccc(Cl)cc2Cl)c1-c1ccc(I)cc1`, the growth inhibition call in experiment [3] is “inactive”.
As to `CSCC[C@H](NC(=O)[C@H](Cc1ccc(OS(=O)(=O)O)cc1)NC(=O)[C@@H](N)CC(=O)O)C(=O)NCC(=O)N[C@@H](Cc1c[nH]c2ccccc12)C(=O)N[C@@H](CCSC)C(=O)N[C@@H](CC(=O)O)C(=O)N[C@@H](Cc1ccccc1)C(N)=O`, the cytotoxicity call in experiment [1] and in experiment [2] was “active” throughout. Moreover, the growth inhibition call in experiment [3] is “inactive”.
For the compound `C[C@@H]1CN([C@@H](C)CO)C(=O)c2cccc(NC(=O)C3CCOCC3)c2O[C@H]1CN(C)S(=O)(=O)c1ccc(Cl)cc1`, the cytotoxicity call in experiment [1] and in experiment [2] was “inactive” throughout. Further, the growth inhibition call in experiment [3] was “inactive”.
As for `Cn1ncc(Br)c1C(=O)O`, in experiment [3], the growth inhibition call is “inactive”.
Regarding `COc1ccc(CCN(C)CCCC(C#N)(c2ccc(OC)c(OC)c2)C(C)C)cc1OC.Cl` (centres undefined), the growth inhibition call in experiment [3] was “inactive”.
On to `COc1cc(C)c(C=CC=CC=CC=CC(=O)O)c(C)c1C`, for which the growth inhibition call in experiment [3] was “inactive”.
On to `CCOC(=O)N1CCC(=C2c3ccc(Cl)cc3CCc3cccnc32)CC1`, for which the growth inhibition call in experiment [3] was “inactive”.
With `CC1(C)CCC2=C(O1)c1ccccc1C(=O)C2=O` [beta-LAPACHONE ], the cytotoxicity call in experiment [1] and in experiment [2] was “inactive” in each case.
For `O=C(O)C1=C[C@@H](O)[C@@H](O)[C@H](O)C1`, the growth inhibition call in experiment [3] was “inactive”.
As for `O=C(O)c1ccnc2nc[nH]c12`, the cytotoxicity call in experiment [1] and in experiment [2] was “inactive” in each case. Besides, in experiment [3], the growth inhibition call was “inactive”.
With `Br.NC(=O)C(c1ccccc1)(c1ccccc1)C1CCN(CCc2ccc3c(c2)CCO3)C1` (centres undefined), in experiment [3], the growth inhibition call was “inactive”.
Regarding `C[C@@H]1CN([C@H](C)CO)C(=O)c2c(c3ccccc3n2C)-c2ccccc2CO[C@@H]1CN(C)Cc1ccc(Cl)c(Cl)c1`, the cytotoxicity call in experiment [1] and in experiment [2] was “inactive” in each case. In addition, the growth inhibition call in experiment [3] is “inactive”.
Turning to `CCCCCOc1ccc(-c2ccc(-c3ccc(C(=O)N[C@H]4C[C@@H](O)[C@@H](O)NC(=O)[C@@H]5[C@@H](O)[C@@H](C)CN5C(=O)[C@H]([C@@H](C)O)NC(=O)[C@H]([C@H](O)[C@@H](O)c5ccc(O)cc5)NC(=O)[C@@H]5C[C@@H](O)CN5C(=O)[C@H]([C@@H](C)O)NC4=O)cc3)cc2)cc1`, the cytotoxicity call in experiment [2] was “active”. Also, in experiment [3], the growth inhibition call was “inactive”.
Regarding `C[C@H]1CN([C@@H](C)CO)C(=O)c2cc(NC(=O)Nc3ccc(C(F)(F)F)cc3)ccc2O[C@@H]1CN(C)Cc1ccc(-c2ccccc2)cc1`, the growth inhibition call in experiment [3] was “inactive”.
As for `Oc1cc(O)c2c(c1)OC(c1ccc(O)c(O)c1)C(O)C2` (centres undefined) [CIANIDANOL [+-catechin]], the growth inhibition call in experiment [3] is “inactive”.
On to `CC(C)CN(C[C@@H](O)[C@H](Cc1ccccc1)NC(=O)O[C@H]1CO[C@H]2OCC[C@H]21)S(=O)(=O)c1ccc(N)cc1`, for which the growth inhibition call in experiment [3] was “inactive”.
For `CC1(C)[C@H](C(=O)O)N2C(=O)C[C@H]2S1(=O)=O`, the growth inhibition call in experiment [3] was “inactive”.
For `C[C@@H]1CCCCO[C@H](CN(C)C(=O)CCC(F)(F)F)[C@H](C)CN([C@H](C)CO)C(=O)c2cc(NC(=O)NC3CCCCC3)ccc2O1`, the cytotoxicity call in experiment [1] and in experiment [2] was “inactive” throughout. In addition, the growth inhibition call in experiment [3] was “inactive”.
On to `C[C@@H]1CN([C@@H](C)CO)C(=O)c2cc(NC(=O)CCN3CCOCC3)ccc2O[C@H]1CN(C)S(=O)(=O)c1cccs1`, for which the cytotoxicity call in experiment [1] and in experiment [2] was “inactive” throughout. For the same compound, the growth inhibition call in experiment [3] is “inactive”.
`CO[C@H]1CN(C)C(=O)c2ccc(NC(=O)Nc3ccccc3)cc2OC[C@H](C)N(C(=O)CN(C)C)C[C@H]1C`: the cytotoxicity call in experiment [1] and in experiment [2] was “inactive” in each case. For the same compound, in experiment [3], the growth inhibition call was “inactive”.
With `CC1(C)CCC2=C(O1)C(=O)c1ccccc1C2=O` [alpha-LAPACHONE], in experiment [3], the growth inhibition call was “inactive”.
Consider `CN(C)CCCN1c2ccccc2Sc2ccc(C(F)(F)F)cc21.Cl`, for which, in experiment [3], the growth inhibition call was “inactive”.
In the case of `CC(C(=O)O)c1cccc(C(=O)c2ccccc2)c1` (centres undefined), the growth inhibition call in experiment [3] is “inactive”.
`Oc1cc(O)c2c(c1)OC(c1ccc(O)c(O)c1)C(O)C2` (centres undefined) [CIANIDANOL [+-catechin] ]: the cytotoxicity call in experiment [1] and in experiment [2] was “inactive” each time.
On to `C[C@@H]1CCCCO[C@H](CN(C)C(=O)Nc2ccccc2)[C@H](C)CN([C@@H](C)CO)C(=O)c2cc(NC(=O)Nc3cccc4ccccc34)ccc2O1`, for which the cytotoxicity call in experiment [1] and in experiment [2] was “inactive” throughout. Besides, the growth inhibition call in experiment [3] was “inactive”.
In the case of `O=C(O)C1=C[C@@H](O)[C@H](O)[C@H](O)C1`, the growth inhibition call in experiment [3] was “inactive”.
Take `C[C@@H]1CN([C@H](C)CO)C(=O)c2cc(NS(=O)(=O)c3ccc(Cl)cc3)ccc2O[C@@H](C)CCCCO[C@@H]1CN(C)S(=O)(=O)c1ccc(F)cc1`: the cytotoxicity call in experiment [1] and in experiment [2] was “inactive” throughout. Further, the growth inhibition call in experiment [3] was “inactive”.
As to `CC1(C)C(C(=O)O)N2C(=O)CC2S1(=O)=O` (centres undefined), the growth inhibition call in experiment [3] is “inactive”.
